# ± gives the standard deviation of the averaged measurements. This is one part of the list.
# Test system: PfAP2-EXP AP2 domain (GST-tagged)
# Experiment: gcPBM binding intensity (ln(normalized median fluorescence intensity)); higher = stronger DNA binding
# How it was run: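 Binding intensity values are the highest Masliner-normalised natural-log median intensity among replicate spots of either probe orientation. The binding step lasted 1 h in 1× PBS with 1% milk, 0.2 mg/ml BSA, 0.5% salmon testes DNA and 0.03% Triton X-100, using GST-tagged P. falciparum DNA-binding domains expressed in E. coli on an Agilent 4 × 180k array of primer-extended double-stranded 36-bp intergenic genomic probes plus negative controls. Alexa488 anti-GST antibody and a 488 nm scan detected bound protein.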
row,Sequence,gcPBM binding intensity (ln)
1,ATATATTTTTTGAATACACACATATTATCTGTAATA [CACACA_site4826],8.37 ± 0.38
2,TATAAATAGAGACACACACACATATAAATAAATATT [CACACA_site7854],8.75 ± 0.35
3,TATATTTCTTCTATAACATGCAGATATATGAAAATA [TGCATGCA_site971],8.55 ± 0.23
4,CTATAATATGGTATTACACACTGTTATAAGTATGGC [CACACA_site7068],8.46 ± 0.42
5,TTTTTGTTCTATATGGTGCATGTTTATATTCGTATT,9.38 ± 0.29
6,ATTAGCAACATTGATAAATATAAACACACGAAAACA [TGCATGCA_negctrl_site97],8.98 ± 0.43
7,CACGTATATATATATACACACACATATATATATGTA [CACACA_site7948],8.73 ± 0.31
8,CATGTTTATGCCGTTTGTACATATATATCTAAAAAA [XGTACX_site4336],8.74 ± 0.37
9,TTTTAGAAATTTACTAAACTTTATATAACTATTGAA [TGCATGCA_negctrl_site280],8.02 ± 0.45
10,ATACCATAAATATTGTGTACATAAATATGTTAGTAA [XGTACX_site6077],8.36 ± 0.31
11,ATAAGTAAAAATAAAAAAAAAATATATATATATATA [CACACA_negctrl_site1816],10 ± 0.37
12,ATGATTATAATTTAAAATATTTTACATAACCATTTC [GTGCAC_negctrl_site297],8.41 ± 0.49
13,TTTAGCTATTATAGCTGTACAATGATAAAATAAATT [XGTACX_site6318],8.45 ± 0.38
14,GTTCATATCTTTTGAGCACACATATATATATATAAA [CACACA_site9099],8.56 ± 0.42
15,AATGAATCCTTATATACACACATTATTATATTATAT [CACACA_site3108],8.69 ± 0.51
16,ATTGATACATCCAATACACACTACATATAATGATGT [CACACA_site8561],8.4 ± 0.3
17,ATATTAATAATATATGCATGCATTAACATATTGAAA [TGCATGCA_site951],9.71 ± 0.12
18,GTATGTATGTATATATGTACACATTATTATTTAATG [XGTACX_site5802],8.78 ± 0.11
19,TTTTTTATATATACATATATATAAATATATATAACT [GTGCAC_negctrl_site385],8.06 ± 0.45
20,GAGAAAAGGAAATTCACACATATAAAGAAAGATCTA [CACACA_site5420],8.5 ± 0.55
21,TATAATGAGGATAATAGTACATATGAATACAAAAAA [XGTACX_site3665],8.86 ± 0.45
22,GCCATAAAAATATATACACACATAAAAAAAAATTAT [CACACA_site1176],8.36 ± 0.53

row,Sequence,gcPBM binding intensity (ln)
1,TACACAAGCAGACACACACACATATAGATTTATATA [CACACA_site6715],8.57 ± 0.69
2,TTAATATTGTATTTCACACATAATTTAATATACTCA [CACACA_site5678],8.26 ± 0.42
3,TATAGGAATATATGGTGTACCTATAAATCTGACATA [XGTACX_site8111],8.46 ± 0.33
4,TTAAATAAGTAATTATGTACATATAATATTCTTTAT [XGTACX_site5280],8.3 ± 0.18
5,TAGAAAATATAAAAATGTACGTAAATAAAATGTGCA [XGTACX_site3459],9.18 ± 0.43
6,ATTTATATATTTATACGTACTTATATATTGTTACAT [XGTACX_site6254],8.9 ± 0.28
7,AAAAATAAAAATTGCACACTAAAAAATTACGCACGA [CACACA_site3418],8.59 ± 0.12
8,AATTATATTACAAACTGTACATATATAATTTGTCCA [XGTACX_site6009],8.23 ± 0.26
9,ATCCGAGTGTGAAATACACACATGATAATGTGAATG [CACACA_site919],8.37 ± 0.33
10,TCTTAAGGAAAAGAGTGTACAGAAATTTTTATTAAC [XGTACX_site6139],8.67 ± 0.48
11,ATATATAGATAATCAAGTACATAACAAGATATAAGA [XGTACX_site2186],8.81 ± 0.47
12,AAATGTGAAGTGAATACACACCTAATAAATATAACA [CACACA_site5727],8.64 ± 0.38
13,TACTGATCTTTCTAGGTGCGCTGCTACCATTATCGT [GTGCAC_site9538],8.74 ± 0.43
14,ACATGAAATGTTTAAAGTACATATATAAATTTTTTT [XGTACX_site4519],8.16 ± 0.33
15,TATATTTAATTATTATGTACTTATAATTTTTGAAAG [XGTACX_site8548],8.51 ± 0.38
16,AAATATATATACACATATATATATATATATATATAT [CACACA_negctrl_site1742],9.95 ± 0.52
17,CTTTCCTATTTGACACGTACGAAATTTTACATAAAA [XGTACX_site6689],8.89 ± 0.38
18,AAAATAAAAAATATAACACACAATAAATATTTATAT [CACACA_site6986],8.68 ± 0.28
19,TATGAAATATCGTGCACACACGAATAATATAAGAAT [CACACA_site4842],8.74 ± 0.14
20,TATGGTATATACAACACACACACATATGTATAAATA [CACACA_site6562],8.88 ± 0.5
21,ATTTATACATGCTAATGTACTTATTTCACCTATATC [XGTACX_site3120],8.69 ± 0.38
22,TATATATATAATATTACACACATATATTTATATTTT [CACACA_site3460],8.87 ± 0.099

row,Sequence,gcPBM binding intensity (ln)
1,CAAGTATTAATTATGTGTACATATATATATATATAT [XGTACX_site5311],10.1 ± 0.53
2,TATGTATTTATCCACTTACATTTTTACTTTTCCATT [CACACA_negctrl_site1141],8.88 ± 0.36
3,AAAAAAAAAAAATAGACACACATATTATATATATAT [CACACA_site1419],9.75 ± 0.16
4,TATTATTCTATACATTGTACATATTTTATAGTATGT [XGTACX_site73],8.6 ± 0.39
5,TTTAAAACCTTACATACACACAAATATGTAAATATA [CACACA_site6464],8.27 ± 0.38
6,AAAAAAAAAAAAAAAACACACATATAGGTATAAATA [CACACA_site7528],8.54 ± 0.12
7,CACGCATATATACATACATGCATATATACATCCATG [TGCATGCA_site667],8.76 ± 0.24
8,TTCATATAACCTTATAGTACATAATTAAAAATATAA [XGTACX_site6328],8.48 ± 0.59
9,AACAGCATTATTTCTTATTTTTTTTTTGATATATTT [GTGCAC_negctrl_site114],8.43 ± 0.49
10,ATATCTATAATAAATACACACATTTATATAGATAAA [CACACA_site7518],8.19 ± 0.34
11,GTTATATTATTCATACGTACCTATATTTCTATTAAC [XGTACX_site3447],8.75 ± 0.099
12,AAACTTGACAGACACACACACACATATATAAAAAAA [CACACA_site757],8.61 ± 0.44
13,TTTTCCTTATATTATGCATGCAGGGTTTGACATTAT [TGCATGCA_site826],10.3 ± 0.34
14,ATGTGTTGGGAAAAGGCATGCACTTTTTTTTTTTTT [TGCATGCA_site707],8.89 ± 0.34
15,TGATAACCTCACAAATGTACGTACGGGGCTAGCATT [XGTACX_site4157],9.01 ± 0.52
16,ACACATACTAAAATGTTGTGAAATATGATAATGTGA [CACACA_negctrl_site851],8.55 ± 0.38
17,TTATAATAATAGAACTTTATGTAGAAAAAAGGAAAA [XGTACX_negctrl_site116],8.55 ± 0.6
18,ATATATTTTAAATATATTATTATTGCATTGTGAAAA [TGCATGCA_negctrl_site106],8.43 ± 0.26
19,CACAGACACGGACACACACACACACCCACATATATA [CACACA_site4355],8.73 ± 0.41
20,AAAAAAAAAAAAAAAACACACATATATATATATATA [CACACA_site2436],10.4 ± 0.11
21,TCTTAAAAAATAGGGACACGTAAATATAATATATAA [CACACA_negctrl_site554],8.73 ± 0.38
22,TATATATATATATATAGTACATATTAATTAATTTAT [XGTACX_site8198],10.1 ± 0.59

row,Sequence,gcPBM binding intensity (ln)
1,TGAATTTAGATATATACACACAAAAGTATATACAAT [CACACA_site2804],8.44 ± 0.35
2,TATATGTTTTATAGTACACACATAAATGGACATACT [CACACA_site2191],8.47 ± 0.26
3,ATATGTATTAAGTGTACACATATAATCTATCTTGTT [CACACA_site5329],8.71 ± 0.23
4,CCCACTAAAAAACACACACACACACCCATATATATA [CACACA_site6140],8.98 ± 0.31
5,TTTTTTTTATATAGTAGTACTAATTAGAATTTTTAT [XGTACX_site7476],8.34 ± 0.32
6,TAATGCCATAATACGTGTACTTAATATATTAGAACA [XGTACX_site5809],8.6 ± 0.39
7,TACATACATACATACACACATACATATGTATATATA [CACACA_site2480],9.09 ± 0.18
8,CTCAAATGTTATTGTAGTACCTAAAAAATATATTCT [XGTACX_site1970],8.37 ± 0.39
9,GTTGGTAGGCGGTACGGTACACGTAAAGTTTTTCTT [XGTACX_site7706],8.7 ± 0.38
10,ATAAATGACAAATTAACACACATATATTATATATAT [CACACA_site3899],8.51
11,ACCATATAAATAAACACACACACACGGATATAAATA [CACACA_site7157],8.73 ± 0.59
12,AACTCATAAAATAATGGTACACAAAAAAAATAAATA [XGTACX_site7648],8.86 ± 0.52
13,TTAGGCAAGGCGGGGGGTACGTTTTTATATAATTAT [XGTACX_site8029],10.7 ± 0.18
14,TTAGATTTATAAGTGTGTACGTAAAATACTTAATAA [XGTACX_site8246],8.35 ± 0.31
15,CAAGGAACCAGACACACACACATAAATGTATTTATA [CACACA_site6491],8.39 ± 0.48
16,TTTTTTTTTTTCTTTTGTACGTATAAAATTATATAA [XGTACX_site2453],8.59 ± 0.23
17,TTTTTATCTAATCTAATATTATATTATACATATAAT [XGTACX_negctrl_site275],8.22 ± 0.34
18,TTTATGGAATAATCACGTACACACAAGAAAAAAAAA [XGTACX_site985],8.84 ± 0.46
19,TGTGTGTGCTTATTTTGTACATATTAGGTAAATATT [XGTACX_site6329],8.79 ± 0.3
20,CAACAAAAGTTATTTACACACAAAAGGCAAGGAAAT [CACACA_site7013],8.94 ± 0.47
21,ACTACGTGGATTAGTTCAAGGGAACACGTCCTATAC [CACACA_negctrl_site1427],8.34 ± 0.36
22,ACTAAACGAATAAATTGTACAAAGAAATATATTCAT [XGTACX_site6766],8.6 ± 0.42

# Reference: the supplement of paper PMC11417369
